# Whole data set: some 33,000 sequences, median “E-score (-0.5 to 0.5)” near -0.035, cut for the highest 2% near 0.35. Some of the results follow.
# Biological target: T1, Pdr3 (UniProt P33200)
# T1 sequence: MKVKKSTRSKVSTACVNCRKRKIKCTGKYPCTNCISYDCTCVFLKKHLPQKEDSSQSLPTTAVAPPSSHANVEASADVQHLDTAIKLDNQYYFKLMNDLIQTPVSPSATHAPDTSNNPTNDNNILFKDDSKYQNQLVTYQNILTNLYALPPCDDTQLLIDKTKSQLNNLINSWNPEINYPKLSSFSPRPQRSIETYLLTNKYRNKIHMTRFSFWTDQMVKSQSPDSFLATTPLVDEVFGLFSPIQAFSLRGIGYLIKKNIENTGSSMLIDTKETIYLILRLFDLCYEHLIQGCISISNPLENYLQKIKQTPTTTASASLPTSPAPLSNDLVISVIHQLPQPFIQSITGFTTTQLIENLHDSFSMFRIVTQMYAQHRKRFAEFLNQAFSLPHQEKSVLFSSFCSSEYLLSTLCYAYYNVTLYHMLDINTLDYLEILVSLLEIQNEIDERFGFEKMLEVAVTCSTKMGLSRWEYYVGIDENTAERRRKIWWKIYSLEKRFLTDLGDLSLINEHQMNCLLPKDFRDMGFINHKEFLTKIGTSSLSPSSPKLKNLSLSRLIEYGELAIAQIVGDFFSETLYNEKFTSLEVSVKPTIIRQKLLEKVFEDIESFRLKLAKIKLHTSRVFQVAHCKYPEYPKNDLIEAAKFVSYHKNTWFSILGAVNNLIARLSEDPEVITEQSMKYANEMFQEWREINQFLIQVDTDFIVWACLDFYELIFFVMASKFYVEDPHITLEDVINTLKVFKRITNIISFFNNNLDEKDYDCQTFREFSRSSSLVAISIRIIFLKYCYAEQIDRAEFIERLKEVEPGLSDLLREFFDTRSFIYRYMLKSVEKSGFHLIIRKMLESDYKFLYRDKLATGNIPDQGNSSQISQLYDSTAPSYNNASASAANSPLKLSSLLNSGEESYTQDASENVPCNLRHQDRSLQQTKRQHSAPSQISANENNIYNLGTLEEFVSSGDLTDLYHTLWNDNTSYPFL
# Test: PBM E-score (8-mer binding enrichment) (E-score (-0.5 to 0.5)); higher = stronger / more preferred TF binding; most listed sequences are background and not binding sites
# Conditions: protein concentration: 200 nM; construct: GST-full length
# Method in brief: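 The E-score, a modified Wilcoxon-Mann-Whitney statistic, was computed by the Universal PBM Analysis Suite for every ungapped eight-base word pooled with its reverse complement. Scans behind it were normalised with masliner after bound GST-tagged yeast transcription factors were detected with fluorescent anti-GST. The proteins, at about 100-200 nM, had been applied to universal all-10-mer Agilent arrays made double-stranded by primer extension.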
row,Sequence,PBM E-score
1,CCGCAGTC,0.116
2,CCTTACAG,-0.132
3,AGAGAGCC,-0.117
4,ATGTTTTA,-0.238
5,AGCATCTG,-0.112
6,TAACCTGA,-0.16
7,AGGGTTAT,-0.0536
8,CCATGAGA,0.0687
9,GCTATGTA,-0.199
10,AATATGGC,-0.0504
11,AGTGCACA,0.0276
12,CAAAATGC,-0.172
13,AGCCTGTC,-0.149
14,ATTCTACA,0.0132
15,AGAGGGCC,-0.0343
16,AAATTGGG,-0.0338
17,TACTTAGA,-0.232
18,ACCAGGCA,-0.194
19,CTAACGCC,-0.0959
20,GTGGGATA,0.141
21,ATCAGTGG,-0.204
22,ACATTGGG,-0.0825
23,CTGTGCCC,0.0176
24,AGTGTTCA,0.0286
25,GAGGAGAC,-0.0903

row,Sequence,PBM E-score
1,ACCCGTCC,0.185
2,TCCTAGAA,-0.0812
3,ATAGGGCC,0.0139
4,TCCGGGCA,0.346
5,CCGAGTTC,0.227
6,CCTCGATC,-0.0159
7,CGATACGC,0.104
8,GAAACCAA,0.0981
9,AAGCGCGC,0.229
10,ACGTGCTG,-0.0058
11,AAACAGTA,-0.114
12,GCATATGA,0.061
13,AATGGGCG,-0.0571
14,AAGAGTTA,-0.185
15,CGAGCCTA,-0.131
16,GTCACCAA,-0.307
17,AATGGGGA,-0.0935
18,TGGGGGAA,-0.273
19,CCACGGTA,0.0861
20,ACGCGCTG,0.0203
21,GACACAAC,-0.0892
22,AGCTCGTG,0.218
23,GCCTCCAC,-0.207
24,ACCGATCC,0.172
25,AAACGTTT,0.00022

row,Sequence,PBM E-score
1,CTGCACGA,-0.124
2,CCTTTAGC,-0.181
3,CATACCGC,0.055
4,CCCCTATA,-0.00636
5,AATACGCG,0.0722
6,TATCATCA,0.0384
7,ACTCGATA,0.0433
8,CATCGAAA,-0.0314
9,AATGTCGG,0.0623
10,AGAGCGCG,0.0593
11,ATCTCAAC,0.123
12,CCCTATTA,-0.101
13,ACAGGGTG,-0.287
14,CAGGCCAA,-0.043
15,CCAAAGCG,-0.003
16,ATATTGGG,0.0357
17,AGTTAACT,0.0558
18,CATGTCAA,-0.15
19,GAATCAGC,-0.124
20,AATGACCC,-0.14
21,CTACGTCA,-0.182
22,CACGTTAG,-0.205
23,CACCAATC,0.0933
24,ACGAGTCT,-0.319
25,CTGGCAGA,-0.109

row,Sequence,PBM E-score
1,CCGTGTCG,0.167
2,ACAGAGCC,-0.128
3,GTCAACTA,-0.0932
4,ACAGCGGT,-0.091
5,GGCGTTAA,-0.0748
6,ATCACGGA,0.391
7,ACAATTCC,0.171
8,ACAACGAA,0.0353
9,CGCCGAAG,0.178
10,ACCACTGG,-0.0338
11,GCCCAGGC,-0.138
12,ACTGCAAT,0.0371
13,ACTCGCGA,0.0895
14,GACGCGCC,0.0769
15,AGCAGCAG,-0.0507
16,CGACCACA,-0.0427
17,CTACGGAG,0.246
18,GCCAGACC,0.018
19,AGGGCTTG,-0.149
20,CAAGCTAC,-0.157
21,CGGGATAG,0.31
22,AGCTGGAG,-0.163
23,ATGCGCCC,0.101
24,ATCGTTTA,-0.14
25,CGTTGGGA,-0.166

row,Sequence,PBM E-score
1,GACAGTAA,0.08
2,TGAATAAA,-0.228
3,ATGAAGGG,-0.171
4,CTATCGTA,-0.164
5,CAATTTTC,0.00449
6,AGATCCTC,-0.0114
7,ACCATGAG,-0.103
8,CAATGAAC,0.00856
9,ACACCACG,-0.161
10,ATTATGGC,0.104
11,CAAAATGA,-0.138
12,GTGGTATA,-0.0912
13,AACATAAT,0.0967
14,CCTTATCC,0.0832
15,CCCCCTGA,-0.33
16,ACGAGCAA,-0.179
17,AGGGGGCA,-0.102
18,CGATCCCA,0.067
19,AAGAAACT,-0.115
20,ATCTGTTA,-0.0958
21,CAGCGTTA,-0.215
22,TAAATAAA,-0.153
23,CGGACTTA,0.171
24,GACAGGTC,-0.108
25,GCAGGCGA,-0.14

row,Sequence,PBM E-score
1,CATCTACC,0.0434
2,ATAGTGCG,0.163
3,AACACGGA,0.374
4,ACTAAGTA,-0.174
5,AAGGGCGC,-0.0433
6,CCGGCCAC,0.271
7,AGGTATGC,-0.0624
8,AACTAGTG,-0.0901
9,CGTCCGAG,0.273
10,CAATCCTA,-0.2
11,AGTCGGGG,0.0779
12,AGACCTAG,-0.0267
13,CCCCTAGC,-0.241
14,GGCACGCA,0.0129
15,ACAGTAAC,-0.0828
16,ACGCGGGG,0.264
17,CACTGCTA,-0.211
18,CGACGAGC,-0.021
19,ACTGGGGC,-0.117
20,CCTTAAGC,-0.0555
21,TCGGAGAA,0.225
22,AGGACATG,-0.15
23,TCGAGCAA,0.0559
24,GGCTGACC,-0.112
25,ATAGGCGA,0.0545

row,Sequence,PBM E-score
1,GATAACCA,0.0306
2,AACAATCG,-0.0331
3,CGGTCTAC,0.00094
4,CGTTAGTA,0.102
5,AGATTGTC,0.0868
6,GGAGTCAA,0.0244
7,ACCAGAGA,-0.103
8,GGCGAATA,0.176
9,GCACTAAA,0.108
10,GTTAACGA,-0.135
11,ACTGGACG,-0.0828
12,CAGCTGGA,-0.0501
13,CTATCACC,-0.0837
14,AGATCCCA,-0.114
15,AGACGCTC,-0.23
16,CTTCTTGA,-0.153
17,CTTTACAA,-0.0727
18,AAATACGT,-0.122
19,CTCTGCGA,-0.174
20,CTCGTTAC,-0.257
21,TATGTCGA,-0.0353
22,AAGGCTCC,-0.268
23,CCGACCCC,-0.0229
24,AACGAACG,0.0925
25,CTTGTCTA,-0.107

row,Sequence,PBM E-score
1,AGGACAGG,-0.217
2,CAAAAATG,0.119
3,AAAGGTTG,-0.0419
4,CCTGACGC,-0.129
5,AACTATGG,-0.186
6,GCTAGGCC,-0.0738
7,AGTATTAT,-0.335
8,AGAACTTC,-0.00865
9,CTATTTGA,0.0111
10,GAAGATAC,0.0529
11,TAATGTCA,-0.0566
12,CCCACCCA,0.073
13,AACTAGGA,-0.125
14,CTTCCAAA,-0.155
15,CGGAGCTC,0.321
16,AACAAATG,-0.0854
17,CCTTTTAC,-0.0322
18,ACTTAGAT,0.0153
19,GGACATAC,0.246
20,ATGCAGAC,0.0172
21,TCAGGCAA,-0.124
22,CCCATGAA,0.0372
23,CAGCTAGA,-0.177
24,AACGTTTG,-0.0262
25,CATAGAAC,-0.0427

row,Sequence,PBM E-score
1,AGATAACA,-0.115
2,GTGCTCTA,-0.135
3,CCCGCGAA,0.206
4,ATCGTAAG,-0.0413
5,AGTAAAAC,-0.205
6,ACTGCCGC,0.21
7,CGTGCATC,-0.0624
8,GAAGATCC,0.0596
9,GCAGGACA,-0.00064
10,CCTCGCTA,-0.245
11,CTGTTACA,-0.0948
12,ATATAAGA,0.0664
13,ACCCGTTA,0.13
14,AAATAAGA,-0.0404
15,CTCAAGGA,-0.022
16,AAGCGCTG,0.12
17,TCAGCCGA,0.153
18,ACCCATAG,-0.237
19,AAGACCTC,-0.134

# Source: the supplement of paper PMC3334620
